Laboratory results reported in PubChem BioAssay AID1671194 (National Center for Advancing Translational Sciences (NCATS), 2021).
About 240 (0.17%) of roughly 140,000 compounds were called active. Inconclusive results, whose numbers are uncertain, are shown with a selection of clear calls. Calls follow the shape of the dose curve; as a rule, active = well fitted inhibition curve with a large enough effect; inconclusive = small, poorly fitted or top-dose-only effect; inactive = no such curve, though single readings can be large or run the other way. Where the call is inconclusive, the potency comes from a doubtful curve fit.

Assay: Primary qHTS assay for inhibitors of alpha-synuclein gene (SNCA) expression; also: nearly all actives have a fitted effect of over 45% in size
Details: HEK-293 SNCA-luciferase knock-in, luminescence, 24 h; series mostly up to 57.2 µM
Potency is read from the fitted curve at half-maximal effect; tags tell the direction and shape of the fitted curve.

Structure (SMILES) | Potency
O=C(NC1CCN(c2nc3ncccc3o2)CC1)c1ccccc1 | inactive
Cc1ccc(N(C)C(=O)Cn2cnc3onc(-c4ccc(F)cc4)c3c2=O)cc1C | inconclusive: 20 µM [inhibitor, single point]
O=C(CCS(=O)(=O)c1cc(Br)cc2c1N(C(=O)C1CC1)CC2)N1CCN(c2ccc(F)cc2)CC1 | inconclusive: 39.8 µM [inhibitor, single point]
COc1cc(OC)cc(C(=O)Nc2ccc3oc(-c4ccccc4C)nc3c2)c1 | inconclusive: 2.24 µM [inhibitor, single point]
CC(C)CNc1nc(NC(C)(C)C)nc(Oc2ccc(=O)n(-c3ccccc3)n2)n1 | inconclusive: 14.1 µM [inhibitor, partial curve, poor fit]
COc1ccc(C(N)CC(=O)N2CCC3(CC2)CN(C)C(=O)O3)cc1OC (stereo unspecified) | inconclusive: 2 µM [inhibitor, partial curve, poor fit]
Cn1cccc1C(=O)N1C[C@@H](COc2ccccc2)[C@H](C(N)=O)C1 | inactive
CS(=O)(=O)N1C[C@H]2CCN(C(=O)c3cc[nH]c(=O)c3)C[C@H]21 | inconclusive: 28.2 µM [inhibitor, partial curve, poor fit]
Cn1cc(CN2CCCC(COc3ccccc3C(=O)N3CCOCC3)C2)c2ccccc21 (stereo unspecified) | inconclusive: 1.26 µM [inhibitor, full curve, poor fit]
O=C(NC1CCN(c2ccnc3ccnn23)CC1)c1cccc(Cl)c1 | inconclusive: 12.6 µM [inhibitor, single point]
OCC1CN(c2ncccn2)CC12CCN(Cc1ccc3[nH]ccc3c1)CC2 (stereo unspecified) | inconclusive: 4.47 µM [inhibitor, single point]
O=C(COc1ccccc1)N1CCC(Oc2cnc3c(ccn3-c3cncnc3)c2)CC1 | inconclusive: 31.6 µM [inhibitor, single point]
CCOC(=O)c1ccc(NC(=O)CCS(=O)(=O)c2ccc(C)cc2)cc1 | inconclusive: 39.8 µM [inhibitor, single point]
Cc1noc(-c2cccc(OC3CN(C(=O)NC(C)C)C3)c2)n1 | inconclusive: 2.51 µM [inhibitor, full curve]
COc1ccccc1Nc1ccnc(N2CCN(C(=O)c3ccc(C(F)(F)F)cc3)CC2)n1 | inconclusive: 12.6 µM [inhibitor, partial curve]
COc1ccc2[nH]c3c(c2c1)CCN(C)C31CCNCC1 | inconclusive: 31.6 µM [inhibitor, partial curve, poor fit]
COc1ccc(-c2noc(CC3CCN(C(=O)c4cc(F)ccc4Cl)CC3)n2)cc1 | inconclusive: 15.8 µM [inhibitor, partial curve, poor fit]
CN(Cc1ccco1)c1ncncc1-c1cccc(NS(C)(=O)=O)c1 | inconclusive: 12.6 µM [inhibitor, partial curve]
Cc1cccc(-c2[nH]ncc2-c2ccc3ncccc3n2)n1 | inconclusive: 4.82 µM [inhibitor, full curve]
O=C(c1ccsc1)N1CCC(N2C(=O)C(O)C23CCCCC3)CC1 (stereo unspecified) | inactive
CC(C)S(=O)(=O)c1ncc(CN(C)Cc2ccsc2)n1CCc1ccccc1 | inconclusive: 15.8 µM [inhibitor, partial curve, poor fit]

Structure (SMILES) | Potency
NC(=O)c1cc[nH]c1C1CCCN(S(=O)(=O)c2cnc[nH]2)C1 (stereo unspecified) | inconclusive: 39.8 µM [inhibitor, single point]
Cc1ccc(CC(=O)N2CCc3[nH]nc(C(=O)NCCCc4ccccc4)c3C2)cc1 | inconclusive: 8.91 µM [inhibitor, partial curve]
Cn1ncc2c(C(=O)NCc3ccc(F)cc3)cc(-c3ccc([S+](C)(=O)[O-])cc3)nc21 | inconclusive: 2 µM [inhibitor, full curve, poor fit]
COCCNC(=O)c1ccc2nnc(-c3cccc([S+](C)(=O)[O-])c3)n2c1 | inactive
Cc1nn2c(c1-c1ccccc1Oc1ccccc1)N(C(=O)Cc1ccc(O)cc1)CCC2 | inconclusive: 20 µM [inhibitor, partial curve, poor fit]
COc1ccc(C(=O)N2CCC3(C2)C(=NC2CCCC2)NC(=O)N3c2cc(F)cc(F)c2)cc1 (stereo unspecified) | inconclusive: 3.16 µM [inhibitor, partial curve, poor fit]
CC(C)N1C[C@H](O)C[C@H]1c1nnc2n1CCN(C(=O)CCc1nc3ccccc3s1)C2 | inconclusive: 39.8 µM [inhibitor, single point]
COc1ccc(CNC(=O)c2cc(C)nc3c2c(C)nn3-c2cccc(Cl)c2C)cc1 | inconclusive: 31.6 µM [inhibitor, single point]
O=C(Cc1c[nH]c2ccccc12)N1CCCN(c2cc(-c3ccc(Cl)cc3)[nH]n2)CC1 | inconclusive: 7.94 µM [inhibitor, partial curve]
O=C(Nc1ccc2ncnc(N3CCCCC3)c2c1)c1ccsc1 | inactive
COc1cc(NC(=S)N[C@H]2CO[C@H]3[C@@H]2OC[C@@H]3n2nnnc2Oc2cccc(N3CCOCC3)c2)cc(OC)c1 | inactive
O=C(NCCc1ccccn1)c1ccc(OC2CCNCC2)nc1 | inconclusive: 39.8 µM [inhibitor, single point]
CC(C)CCNC(=O)c1cnc2n1CCN(Cc1ccc(C(C)C)cc1)CC2 | inconclusive: 14.1 µM [inhibitor, partial curve]
CN1CCC(N2C[C@@H]3C[C@H]2C(=O)N(Cc2ccc(OC(F)(F)F)cc2)c2ccccc2O3)CC1 | inactive
CCOc1ccc(S(=O)(=O)N(C(=O)c2ccncc2)c2ccc3oc(C)c(C(=O)OC)c3c2)cc1 | inconclusive: 39.8 µM [inhibitor, single point]
COc1ccc(-c2noc(CC3CCN(C(=O)c4ccc(OC)cc4OC)CC3)n2)cc1 | inactive
CCOc1ccccc1C(=O)N(Cc1cccs1)c1ccc(Cl)cc1 | inconclusive: 31.6 µM [inhibitor, partial curve, poor fit]
COc1ccccc1CN1CCN(C2CCN(C(=O)NC(C)C)CC2)C(=O)C1=O | inconclusive: 3.16 µM [inhibitor, single point]
CN(C)CCOc1cc(-c2cn[nH]c2)ccc1NC(=O)C1COc2ccccc2O1 (stereo unspecified) | inconclusive: 0.0054 µM [inhibitor, single point]
Cc1ccccc1NC(=O)Cn1c(-c2ccc(F)cc2)nc(C)c(CCO)c1=O | inactive
CC(=O)c1ccc(NC(=O)Cn2ncc3c(C)n(Cc4ccc(F)cc4)c(C)c3c2=O)cc1 | inconclusive: 17.8 µM [inhibitor, partial curve, poor fit]

Structure (SMILES) | Potency
CC1CCN(S(=O)(=O)c2ccc3c(c2)N(CC(=O)N2CCN(c4ccccc4)CC2)C(=O)CO3)CC1 | inconclusive: 39.8 µM [inhibitor, single point]
COc1cccc(-c2cccc(C(=O)N3CCCC3C(=O)N(C)C)c2)c1 (stereo unspecified) | inactive
CCCN(CC1CCOC1)S(=O)(=O)c1cccc(F)c1 (stereo unspecified) | inactive
COCCNC(=O)[C@H]1C[C@H](Oc2ccccc2)CN1C(=O)COc1ccc(F)cc1 | inconclusive: 8.91 µM [inhibitor, single point]
COc1cc2c(C(=O)N(C)c3cc(Cl)ccc3OC)cn(CC(C)C)c(=O)c2cc1OC | inconclusive: 39.8 µM [inhibitor, partial curve, poor fit]
COc1ccc(Cl)cc1NC(=O)N1CC(=O)Nc2sc3c(c2C1c1ccccc1)CCCC3 (stereo unspecified) | inconclusive: 17.8 µM [inhibitor, single point]
Cc1cn2nc(C(=O)Nc3ccc4c(c3)OCCO4)cc2c(N2CCSCC2)n1 | inactive
CC(C)c1cc(C(=O)N2CCN(C)[C@@H]3CS(=O)(=O)C[C@@H]32)nc2ncnn12 | inactive
O=C(NCCCNc1nc(Nc2cccc(NC(=O)N3CCCC3)c2)ncc1I)c1cccs1 | inconclusive: 21.5 µM [inhibitor, partial curve, poor fit]
CN(C)c1ncc2ncc(=O)n(CCc3ccccc3)c2n1 | inconclusive: 8.91 µM [inhibitor, single point]
CC(C)(C)CN1CCOC[C@H]1c1ncc(-c2cccc(Cl)c2)[nH]1 | inconclusive: 31.6 µM [inhibitor, single point]
Cc1cc(C)cc(CN2CCC3(Cc4ccccc4CNC3=O)C2)c1 (stereo unspecified) | inconclusive: 12.6 µM [inhibitor, single point]
CCNc1cc(N2CCC(CCC(=O)N3CCOCC3)CC2)ncn1 | inconclusive: 14.1 µM [inhibitor, partial curve, poor fit]
CC1CCN(S(=O)(=O)c2ccc3nc(Nc4ccc(C#N)cc4)ccc3c2)CC1 | inconclusive: 39.8 µM [inhibitor, single point]
COC(=O)[C@@H](Cc1cccnc1)NC(=O)[C@@H]1CN(C(=O)c2cccc(F)c2)CCN1C(=O)c1cccs1 | inconclusive: 1.26 µM [inhibitor, partial curve, poor fit]
O=C(c1csc(-c2cccs2)n1)N1CCC2(CCCO2)CC1 | inactive
Cc1ncoc1C(=O)N(C)C1CCc2nn(CC3CC3)c(=O)n2CC1 (stereo unspecified) | inconclusive: 3.55 µM [inhibitor, single point]
COc1cccc(C(=O)N2CCN(c3cc(-c4ccc(Cl)cc4)[nH]n3)CC2)c1OC | inconclusive: 11.2 µM [inhibitor, partial curve, poor fit]
Cc1noc2c(NCCN(C)C)cc(-c3ccc(F)cc3)nc12 | inactive
